Data as given in PubChem BioAssay AID686979 (National Center for Advancing Translational Sciences (NCATS), 2013).
The whole screen tested about 420,000 compounds, of which about 50,000 (12%) were called active. The inconclusive results got no clear call from the source; some entries with a clear call stand among them for comparison. The call rests on the fitted dose curve; in most records, active means well fitted inhibition curve with a large enough effect; inconclusive means small, poorly fitted or top-dose-only effect; inactive means flat fitted curve, though single readings scatter. No potency is given beside an inconclusive call; the fits are too rough.

Experiment: qHTS for Inhibitors of human tyrosyl-DNA phosphodiesterase 1 (TDP1): qHTS in cells in presence of CPT; further: nearly all actives have a fitted effect of over 55% in size
Conditions: chicken DT40 Tdp1-/-;hTDP1 cells + 20 nM CPT, ATP luminescence, 48 h; activity change, negative = growth inhibition: at 46.2 µM (top of the series) unless noted
Outline: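 Cell growth measured by CellTiter-Glo luminescence after a minimum 48 h, 37 C compound exposure with 20 nM CPT in Tdp1-knockout DT40 cells stably expressing hTDP1, seeded 400/well; qHTS titration format.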
On the % scale 0 is the no-effect control and ±100 the full control effect; potency means the concentration at half of the fitted maximal effect; tags describe the fitted curve by direction and shape.

Q: With `COc1ccc(-c2cc3nc(-c4ccccc4)cc(N4CCC(O)CC4)n3n2)cc1` as the compound, how does the Potency read?
A: inconclusive [inhibitor, single point]

Q: Which Potency does the source give for `Cc1cccc(OCCNC(=O)c2ccc(Cl)c(S(=O)(=O)NCc3cccnc3)c2)c1` here?
A: active: 3.66 µM

Q: With `COc1ccccc1C1C(C(=O)c2cc3ccccc3o2)=C(O)C(=O)N1c1cc(C)on1` (stereo not given) as the compound, how does the Potency read?
A: inactive

Q: For `COc1ccc(OC)c(C2CC(=O)c3c([nH]c(C(=O)OCc4ccc(C)cc4)c3C)C2)c1` (stereo not given), which Potency is on record?
A: active: 4.61 µM

Q: Which Potency does the source give for `COCCn1c(C)cc(C(=O)COC(=O)c2ccc(Br)o2)c1C` here?
A: inactive

Q: For `O=C(Nc1ncc(Cc2cccc(Cl)c2Cl)s1)c1ccc([N+](=O)[O-])cc1`, which Potency is on record?
A: active: 13 µM

Q: Which Potency does the source give for `CC(C)c1ccc(C(O)c2cnc(C(C)C)n2C)cc1` (stereo not given) here?
A: inconclusive [inhibitor, partial curve]

Q: Which Potency does the source give for `O=c1c2ccccc2nc2n1C(CSCc1ccccc1)CS2` (stereo not given) here?
A: active: 8.2 µM

Q: For `Cc1cc(=O)oc2cc(OCC(=O)N3CC(=O)Nc4ccccc43)c(Cl)cc12`, which Potency is on record?
A: inactive

Q: With `COCCN(Cc1cccs1)S(=O)(=O)c1csc(C(N)=O)c1` as the compound, how does the Potency read?
A: inactive

Q: For `CCOc1ccc(CN2CCN(Cc3ccc4c(c3)c3ccccc3n4CC)CC2)cc1`, which Potency is on record?
A: inconclusive [inhibitor, single point]

Q: For `CCN(CC)S(=O)(=O)c1ccc(C)c(NC(=O)CSc2ncc(C(F)(F)F)cc2Cl)c1`, which Potency is on record?
A: inconclusive [inhibitor, partial curve]

Q: With `Cc1ccc(NC(=O)C2(C)CCN2C(=O)CC(c2ccccc2)c2ccccc2)cc1` (stereo not given) as the compound, how does the Potency read?
A: inconclusive [inhibitor, single point]

Q: Which Potency does the source give for `CCc1nc2c(OCCc3cccc(OC)c3)cccn2c1N(C=O)Cc1ccccc1` here?
A: inconclusive [inhibitor, single point]

Q: For `CCN(CC)S(=O)(=O)c1ccc(N2CCOCC2)c(NC(=O)c2ccccc2)c1`, which Potency is on record?
A: inconclusive [inhibitor, partial curve]

Q: For `COC(=O)c1cc(NC(=O)CN(c2ccc(OC)cc2)S(=O)(=O)c2ccc(F)cc2)ccc1Cl`, which Potency is on record?
A: active: 18.4 µM

Q: For `CCN(Cc1nc2cc(Cl)ccc2c(=O)[nH]1)C(=O)c1cccc(OCc2c(C)noc2C)c1`, which Potency is on record?
A: inactive

Q: Which Potency does the source give for `Cc1ccc(-c2c(C(=O)N3CCN(c4ccc(F)cc4)CC3)oc(=O)c3ccccc23)cc1` here?
A: inconclusive [inhibitor, single point]

Q: Which activity change, negative = growth inhibition does the source give for `CC1(C)NC(=O)N(CCCCOc2ccc(Cl)cc2)C1=O` here?
A: inconclusive: -31.5% [inhibitor]

Q: Which Potency does the source give for `O=C1c2oc3ccc(Cl)cc3c(=O)c2C(c2ccccn2)N1CCCN1CCOCC1` (stereo not given) here?
A: active: 23.1 µM
